The other results are listed elsewhere or left out.
T1: UNK ZnF1-3 (human, UniProt Q9C0B0 31-174)
T1 sequence: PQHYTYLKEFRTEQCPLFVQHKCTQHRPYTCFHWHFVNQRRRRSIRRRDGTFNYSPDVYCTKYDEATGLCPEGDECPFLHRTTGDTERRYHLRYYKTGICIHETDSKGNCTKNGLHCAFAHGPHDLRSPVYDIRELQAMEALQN

B1: chr7:6442117:6442118:+_ENSG00000136238_ENST00000348035|hu_hu|FALSE|FALSE (ssRNA)
RNA: GGGAGUUCUACAGUCCGACGAUCCGUUGUUUUUUUUUUUUGUUUUUUUUUUUUGUUUUUUUUUGAGCAAAGCGUACAAAGGUUCCAAGGGACAGGACCAAGAACGAGGGGCUGAGACAUUUACAACAGCAGGCAUUUUCUCUUCAACAGAGGAUUGAGCAUCA
B2: chr2:48026839:48026840:+_ENSG00000116062_ENST00000540021|hu_hu|hu_hu_hu_mus_False|18_88 (ssRNA)
RNA: GGGAGUUCUACAGUCCGACGAUCAUAGUGAGCCACUAGCGUCCUAAAUCUCGAACAGUGGCGGUCAUCCGAAAACUGGCCGAUGAAAAACUUGCCCAGUGAAGUGUCCACAAAGCACACACCAUAUACACGAGUGUGACCAGACAACAGAGGAUUGAGCAUCA
B3: chr19:8913615:8913616:-_ENSMUSG00000071658_ENSMUST00000096259|mus_hu|mus_mus_mus_hu_False|28_28 (ssRNA)
RNA: GGGAGUUCUACAGUCCGACGAUCAGGGUACCAAAACCUUCUGCCUGAAAUGGGUGCCCCACCCAGUAGGGAGUUGCAGCUGAAAGUAUCUGAUGCAGAAGCAGUGAAUGCAGAGAAGGAGGCCCCUGGGGAGGGCCAGGCCAGCAACAGAGGAUUGAGCAUCA
B4: chr1:160275524:160275525:-_ENSG00000122218_ENST00000241704|hu_mus|FALSE|FALSE (ssRNA)
RNA: GGGAGUUCUACAGUCCGACGAUCACACAGAGCAUCCAGCUUGCGGUUACAGAUCACAAUGGCAUGCUUGGCCAGUAACGCUACAUGAGACAUGUCUGCCGACCAGAUAACAUAUUUCACCUUGGAAAUCUUCACUGAUGCCAGCAACAGAGGAUUGAGCAUCA
B5: 63679155_63681178_641_CDS_ENSMUSG00000028364_ENSMUST00000107372|mouse|control|control (ssRNA)
RNA: GGGAGUUCUACAGUCCGACGAUCCCCAGGGCAGUCAGGCUCAGAGCAGUUGGGGCCUUUCCAGCCUGGUUCACAGACACAGCCGCAGCCUUCUGCACUGAAGUUGCCCCGUCCGCUGCAGAAGGGCCUGGUGUCCAGACGACCCAACAGAGGAUUGAGCAUCA
B6: chr12:16043544:16043545:+_ENSG00000023734_ENST00000419869|hu_hu|FALSE|FALSE (ssRNA)
RNA: GGGAGUUCUACAGUCCGACGAUCUUUGUUCAAGUCAUAUAUGCGUAACAGUUUAUCCUGUCCCCCGGUUAACAAAUAAUUACUAUCCUGCGUGAAAUCCACAGUCUUGACAAUGUGUUUAUGAGCCAGGGUCAUCAAUUCAUCCAACAGAGGAUUGAGCAUCA
B7: chr7:65705844:65705845:+_ENSG00000169902_ENST00000304842|hu_mus|hu_hu_hu_mus_False|1_58 (ssRNA)
RNA: GGGAGUUCUACAGUCCGACGAUCAAACGGAUCUUUGUUACAUAAAUAAGGUGCCGGCUCCCCAUGUUUAACAAUGAUUUCUAGUAAGAAGGCUUGCAUGGCAGAAUCUAGCACUUCAUCUGUGACACCCGCCUCAUCCAGGCGCAACAGAGGAUUGAGCAUCA
B8: 102142795_102142915_3032_3pUTR_ENSMUSG00000027189_ENSMUST00000102573|mouse|control|control (ssRNA)
RNA: GGGAGUUCUACAGUCCGACGAUCAGAUGUAUUAAAUUCUCCAGUCUUUGCAGACAGAUGGUAAGACACCAAAAUUGUCUAAGCCAUCUACUAGCCACCAGCUGGGGAAAGUAUACAUAUUUUUAGAUCUCACACUCCGCUCUGCAACAGAGGAUUGAGCAUCA
B9: chr2:217001844:217001845:+_ENSG00000079246_ENST00000392132|hu_hu|hu_hu_hu_mus_False|28_78 (ssRNA)
RNA: GGGAGUUCUACAGUCCGACGAUCACCAACUUGAGGAUUAGAUCUUUUGUCAUAAGCAUAUCGAACUAUGGCGACCAUGUUUAACUCAUCCAAAGCAUGAACGAGAGAGGAAAGUGCAACAGCUGCCGCCUCAUCAUCCUUUGCCAACAGAGGAUUGAGCAUCA
B10: chr15:31387667:31387668:-_ENSMUSG00000039100_ENSMUST00000090227|mus_hu|FALSE|FALSE (ssRNA)
RNA: GGGAGUUCUACAGUCCGACGAUCUUUAAUACUAUAUGAAAAUUCUUUUAUAGUUUCUGAAGACCUAUGUUAUACGCUUUCUAUGAGAACUUCUAAAUUAUCGUUCAAAAACAAACACUACCCUUACGAUAUACCUUUAGCAUUCAACAGAGGAUUGAGCAUCA
B11: chr10:13244450:13244451:-_ENSMUSG00000019809_ENSMUST00000019945|mus_mus|motif|central (ssRNA)
RNA: GGGAGUUCUACAGUCCGACGAUCAAGGACACCACAUUCCAUUCCAUAUACGUAUGGAAGUACCUAGUUGGUUUGGAUCAGCGGUCCAGACUUUAAGAAAUCAUGAUUGAUCCUGAUGUAAUUUGUGCACCAGUUAGAUACACCCAACAGAGGAUUGAGCAUCA
B12: 84846757_84848177_410_3pUTR_ENSMUSG00000024644_ENSMUST00000025546|mouse|control|control (ssRNA)
RNA: GGGAGUUCUACAGUCCGACGAUCCUGGCCCCUUAUCGUCCGUGGAGCCUCUCCCAUACAGCUUGCCUUCCCGCUCCACCAAGGUGAAGGGCUCGCUGUCCCACCCGUCCUCCAGGGCCGCAGGCUGCACGUCCAGGUGCCCGUCAACAGAGGAUUGAGCAUCA
B13: 33309428_33316740_2492_CDS_ENSG00000083642_ENST00000450460|human|control|control (ssRNA)
RNA: GGGAGUUCUACAGUCCGACGAUCAAUAGCCUGAAUUUUGACCAUUGUCUCAGGAGAUACUUCUUCAUCUGGAACCCAAAGUUUAGUUGUCUUUUUCCCUGGAAGCCGAUCAUUCAUGAGAAGAUCUUUCACAAUGAAAGUAGCCAACAGAGGAUUGAGCAUCA
B14: chrX:71549762:71549763:+_ENSMUSG00000019087_ENSMUST00000019231|mus_mus|mus_mus_mus_hu_False|58_88 (ssRNA)
RNA: GGGAGUUCUACAGUCCGACGAUCAAACCCGUGUACUUCUUAUUGUUACAUCACCCCCACCAGAAAACGAUAACGACAGCUAAGCUGGACAGACAGUUAAGUAGUACUUCCACACUCCCAAACUCAGGGAGCCCUAUAACCUUACAACAGAGGAUUGAGCAUCA
B15: 99993845_99996167_969_CDS_ENSG00000197894_ENST00000296412|human|control|control (ssRNA)
RNA: GGGAGUUCUACAGUCCGACGAUCUUCUACACUCUUCCAUCCUCCAAAGGCAGUGCCUUUCCAUGUGCGACCUGUUACCAGCUGGAAUGGACGAGUGGCAAUUUCUUCACCUGAAGCAGCUACUCCAACCACGACGCUGACGCCCAACAGAGGAUUGAGCAUCA
B16: chr18:42480448:42480449:+_ENSMUSG00000024491_ENSMUST00000091920|mus_mus|FALSE|FALSE (ssRNA)
RNA: GGGAGUUCUACAGUCCGACGAUCGAAGUGUUCGUUGAGCUUGGUAAUGUUGUUCAAUUCCUGGGGGAUUUUUUUCACCUCUAGUUUGGUGUUUGUAUAAUGAUUCUUCCUCAGGAAGCCUGGUUUACUUUGAUUGUUGUUCCCCAACAGAGGAUUGAGCAUCA
B17: chr7:65617436:65617437:+_ENSG00000241258_ENST00000415001|hu_hu|motif|central (ssRNA)
RNA: GGGAGUUCUACAGUCCGACGAUCUUCUUCUCCCCAAGGCACAAAUAUUUCUUUUUAACUUAUUUUUGUGAUGUACCCAACGGACCACAAAGCCAGGCCUGCUGGGAUGAGGAUAAAAAUCAAAUAAACAAUCCUCUCAACGUCCAACAGAGGAUUGAGCAUCA
B18: chr16:71807222:71807223:-_ENSG00000166747_ENST00000299980|perfect_dup|FALSE|FALSE (ssRNA)
RNA: GGGAGUUCUACAGUCCGACGAUCUCCUGCAAGAUCUCUGCACAUCUCUGAGGAGCCCAUGCAGCCGAGGGUACAAAGUGCUAACCCCUGUACGAAUUGCGUGCUAUGAUUAAGAUCAUUCUUGAUACAGUUGGUCAUGAGAAGCAACAGAGGAUUGAGCAUCA
B19: chr19:8913615:8913616:-_ENSMUSG00000071658_ENSMUST00000096259|mus_hu|mus_mus_mus_hu_False|1_108 (ssRNA)
RNA: GGGAGUUCUACAGUCCGACGAUCAGGGGGGCACCAACUUCUGCCUGAAAUGGGUGCCCCACCCAGUAGGGAGUUGCAGCUGAAAGUAUCUGAUGCAGAAGCAGUGACUAUACGAAAGGAGGCCCCUGGGGAGGGCCCGAGAUCCAACAGAGGAUUGAGCAUCA
B20: chr6:13786029:13786030:-_ENSMUSG00000048216_ENSMUST00000115492|mus_hu|FALSE|FALSE (ssRNA)
RNA: GGGAGUUCUACAGUCCGACGAUCAAAAACUCUCCAAUAACAGGCCACCAGGUAGGGGCCCCACAAGGUUAGAAACAGAAAAGUCAUUAUAUAGAACAUUCUGCUGAUUCUUUUCUCCAUUUUGAACUCGUCUAAGACCAAUAGCAACAGAGGAUUGAGCAUCA
B21: chr8:95500983:95500984:-_ENSG00000164944_ENST00000437199|hu_hu|hu_hu_hu_mus_True|8_58 (ssRNA)
RNA: GGGAGUUCUACAGUCCGACGAUCAGAACACAUCUAUCGAGUAAAGGACCGUACAUGACGGCCUCUACCACUGCCUCCCACUAACAACUUUCCUCUCGAGCCUCCACUGCCGCUAUUUGUACUAGCCCCAGGAAGGUCCAGGCCCAACAGAGGAUUGAGCAUCA
B22: chr4:17845017:17845018:+_ENSG00000109805_ENST00000514176|hu_mus|hu_hu_hu_mus_False|1_98 (ssRNA)
RNA: GGGAGUUCUACAGUCCGACGAUCGCUCUCUUAACUUGAUCUUCAUUUAAGGAACUCUGCAAGGUUAAGUUUACUUUUCUGUAGCGCAGCUGUUUUGGCUCGUCUGGGUAAUCUCAUCUUCAUUUCUGAUGGUGGUUUGGAACUCAACAGAGGAUUGAGCAUCA

These binders were tested against T1, UNK ZnF1-3 (assay: nsRBNS (natural sequence RNA bind-n-seq); RBNS binding buffer (assumed for nsRBNS): 25 mM Tris pH 7.5, 150 mM KCl, 3 mM MgCl2, 0.01% Triton X-100, 500 ug/ml BSA, 20 U/ml SUPERase-In, 4 C; UNK is unkempt and MSI1 is Musashi-1; names of the RNAs are library labels; protein concentration not given here; high values mean tight binding).

Binder | binding signal [enrichment R]
B1 | 1.5
B2 | 1.13
B3 | 1.52
B4 | 1.07
B5 | 0.634
B6 | 1.1
B7 | 0.623
B8 | 0.533
B9 | 1.69
B10 | 0.792
B11 | 0.735
B12 | 0.714
B13 | 0.884
B14 | 1.53
B15 | 0.505
B16 | 0.356
B17 | 1.26
B18 | 1.22
B19 | 0.944
B20 | 1.01
B21 | 1.07
B22 | 0.465

Source: article PMC12136788
